Results as given in the RNAGym collection of RNA variant scans (doi:10.1073/pnas.2313332121).
Variants at the background level are over-represented here.

B1: TPR 5TU (parent)
chain: GGAUCUUCUCGAUCUAACAAAAAAGACAAAUCUGCCACAAAGCUUGAGAGCAUCUUCGGAUGCAGAGGCGGCAGCCUUCGGUGGCGCGAUAGCGCCAACGUUCUCAACUAUGACACGCAAAACGCGUGCUCCGUUGAAUGGAGUUUAUCAUG

Variants of: B1
Test: polymerase ribozyme fitness, log enrichment relative to wild type (log ratio); higher = more active; in vitro selection for triplet polymerase activity
How it was run: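 Both subunits of a heterodimeric triplet polymerase ribozyme were given their own mutant library, built by PCR and transcribed. Each library was annealed with a biotinylated primer, the partner subunit and triplets, incubated frozen at −7 °C, and its extended constructs gel-excised, captured on streptavidin beads and amplified by RT-PCR, all in one round done in triplicate. Fitness is the logarithm of genotype enrichment relative to wild-type enrichment, with replicates averaged by inverse-variance weighting. That logarithm is base 2, and Illumina-sequenced genotypes needed ≥10 input reads and ≥1 read per output.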

Polymerase ribozyme fitness (log ratio), -0.404:
A21C C93U A97U C116U C123U

Polymerase ribozyme fitness (log ratio), -3.51:
A21C U56G C85A C87U G92A

Polymerase ribozyme fitness (log ratio), -3.06:
A21C A49U C54U C85G G117A G124U

Polymerase ribozyme fitness (log ratio), -0.735:
A21G C36U C57A

Polymerase ribozyme fitness (log ratio), -0.529:
A21G A24U U53A G94A

Polymerase ribozyme fitness (log ratio), -3.35:
A21G G70A

Polymerase ribozyme fitness (log ratio), -0.545:
A21U C63U G84A

Polymerase ribozyme fitness (log ratio), ≤ -4.2:
A21G A29C G62U
A21C A41C C51U G65A G71U G83A
A21U G42C U44A U53A U55A C87U
A21U A26U A30C U31G C36U A52U U53A A97G
A21U A23U A24C C54U G81A C85U A147C
A21U A91G U139C
A21G C38U A47C U90A C96A A137U
A21C C51U A66G C85G
A21C G62A G81A C87A A98U C149G
A21C A52G A73U G86C
A21C C51G A91G G92A U102A
A21C G48C U61G A73G A138U U146G
A21U A47U G80A C85U A89C C103G G124A
A21U A29U A66U C76A C93G
A21G G68U G141A C149G
A21C C35G C36G G112A G124A G143C U148G
A21U C76G
A21G A91U A110G U135C
A21U A22U U45A U55G G86U A110C
A21C U77C C103A
A21C U44A G48C U56A C85U U104G U139G
A21G G50C A120G G141A G143A
A21G G86A C87G G100A
A21G A28G A115G
A21C A52U C93U C99A G124A A137C A150U
A21U A73U A91U A97U
A21G A37G C69A G80C C96A
A21U A39C G84U A97U U134A U139C A142U U148G
A21C G65A C93G C96A A120U U148A
A21U A52G C75A A91G C93U C108G
A21G G50A C95G A98G G117A U139A
A21G C35A U55A A97U A121G
A21C U44A G48A G59C G74U C75A
A21C U56A C76G G133U
A21U C27U C43U G50U A52C C103A C123A U145C
A21G C36G U78A C103G U134C
A21U G65A G70A G86A A119C U127A U148G A150U
A21U A29G G50A A52U G70C G86U G92C U127G A138C
A21U A23G C54A U77G C79U C87A
A21C G68C C69A C93G U144G
A21C U31C C32A A52C A97C
A21G G25U U53A G81A C85A C131U
A21G A28C U56A G62C G65A G74C
A21U C32G C85A
A21G G88A U90C U127C U135G C149U
A21C G25A G48C A52G U90G C93A C114U
A21G A24C U31C C69G U148C
A21G G67A
A21G A40G G88A A106C
A21U A26G G86U C118U
A21U A22U C38U C57U G65C G84A U101C A138G
A21C C27A A52G U56A G92U A113G U139A
A21G C38U U61A A89U U127A G128A
A21G U45A U78G C79A U109G A110G U145A A150G
A21C G50A A64G G70A U78G G92A C99A C108G
A21G G46C U82G G88U C95G A98C
A21U A29U U61A
A21G C35U C51U C57G C87U A89C C108G U134C
A21G U31G C38U A66G C93A G124U U144A
A21U C57A G71A U90G C93G G136A U148C
A21C C54G G58A U90A C95U
A21U A39G A66G A73G G86A
A21C C72G G124C
A21C G46U U78G C96A G141C
A21C G59C C79A G152A

Polymerase ribozyme fitness (log ratio), -2.46:
A21G C51U U53A C96U G126U

Polymerase ribozyme fitness (log ratio), -0.927:
A21C A40C C99G

Polymerase ribozyme fitness (log ratio), -2.5:
A21U A41U U55G G83A U145A

Polymerase ribozyme fitness (log ratio), -3.03:
A21U A26U G83A A106G

Polymerase ribozyme fitness (log ratio), -0.909:
A21C A137G

Polymerase ribozyme fitness (log ratio), -3.23:
A21G A60G C63A C93G

Polymerase ribozyme fitness (log ratio), -3.29:
A21C C63U A73C C95A A98U

Polymerase ribozyme fitness (log ratio), -3.58:
A21U C51U C93G C105U A120G

Polymerase ribozyme fitness (log ratio), -4.07:
A21U C105G A113G C116U

Polymerase ribozyme fitness (log ratio), -1.6:
A21U C57U C93U C96A C116U

Polymerase ribozyme fitness (log ratio), -3.46:
A21C U45A A64G G92A
